# Some of the results follow.
# B1: HPAIIITrx (Helix pomatia), Q1KM18 (protein)
# chain: MLFVTIISLGLLAIVHGQCALKTIAFSAAIDREQTFDANQVVIYDIVITNHGNAYDNSTGLFTAPVDGMYSFQLNLLTIKEKEGWLELVHNGQLKVSVYAKQDSTYDSSSNSVIIKMKEGDRVNVRAHKKSGLFGRDDELYNTFSGHFLSGL
# Columns and labels:
# Experiment in all cases: glycan array binding signal (z-score within array); higher = stronger binding
# Conditions in all cases: glycan notation: IUPAC condensed, linker removed
# [1] = target: Gal(b1-4)Glc
# Summary of the method: (§1)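 Glycan array binding is given as a within-array Z-score, which can be read as non-binding when negative. The arrays, 3228 of them, came from the Consortium for Functional Glycomics database and were retained only where the protein sequence was available. Z-scores were averaged across arrays of the same protein sequence at different concentrations or buffers and across linkers.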
# [2] = target: Gal(b1-4)Glc6S
# Summary of the method: as §1
# [3] = target: Gal(b1-4)GlcNAc
# Summary of the method: as §1
# [4] = target: Gal(b1-4)GlcNAc(a1-6)Gal(b1-4)GlcNAc
# Summary of the method: as §1
# [5] = target: Gal(b1-4)GlcNAc(b1-2)Man
# Summary of the method: as §1
# [6] = target: Gal(b1-4)GlcNAc(b1-2)Man(a1-3)Man(b1-4)GlcNAc(b1-4)GlcNAc
# Summary of the method: as §1
# [7] = target: Gal(b1-4)GlcNAc(b1-2)Man(a1-3)[Gal(b1-4)GlcNAc(b1-2)Man(a1-6)]Man(b1-4)GlcNAc(b1-4)GlcNAc
# Summary of the method: as §1
# [8] = target: Gal(b1-4)GlcNAc(b1-2)Man(a1-3)[Gal(b1-4)GlcNAc(b1-2)Man(a1-6)]Man(b1-4)GlcNAc(b1-4)[Fuc(a1-6)]GlcNAc
# Summary of the method: as §1
# [9] = target: Gal(b1-4)GlcNAc(b1-2)Man(a1-3)[Gal(b1-4)GlcNAc(b1-2)Man(a1-6)][Gal(b1-4)GlcNAc(b1-4)]Man(b1-4)GlcNAc(b1-4)[Fuc(a1-6)]GlcNAc
# Summary of the method: as §1
# [10] = target: Gal(b1-4)GlcNAc(b1-2)Man(a1-3)[Gal(b1-4)GlcNAc(b1-2)Man(a1-6)][GlcNAc(b1-4)]Man(b1-4)GlcNAc(b1-4)[Fuc(a1-6)]GlcNAc
# Summary of the method: as §1
# [11] = target: Gal(b1-4)GlcNAc(b1-2)Man(a1-3)[GlcNAc(b1-2)Man(a1-6)]Man(b1-4)GlcNAc(b1-4)GlcNAc
# Summary of the method: as §1
# [12] = target: Gal(b1-4)GlcNAc(b1-2)Man(a1-3)[GlcNAc(b1-4)][Gal(b1-4)GlcNAc(b1-2)Man(a1-6)]Man(b1-4)GlcNAc(b1-4)GlcNAc
# Summary of the method: as §1
# [13] = target: Gal(b1-4)GlcNAc(b1-2)Man(a1-3)[Man(a1-6)]Man(b1-4)GlcNAc(b1-4)GlcNAc
# Summary of the method: as §1
# [14] = target: Gal(b1-4)GlcNAc(b1-2)Man(a1-6)Man(b1-4)GlcNAc(b1-4)GlcNAc
# Summary of the method: as §1
# [15] = target: Gal(b1-4)GlcNAc(b1-2)Man(a1-6)[GlcNAc(b1-2)Man(a1-3)]Man(b1-4)GlcNAc(b1-4)GlcNAc
# Summary of the method: as §1
# [16] = target: Gal(b1-4)GlcNAc(b1-2)Man(a1-6)[Man(a1-3)]Man(b1-4)GlcNAc(b1-4)GlcNAc
# Summary of the method: as §1
# [17] = target: Gal(b1-4)GlcNAc(b1-2)[Gal(b1-4)GlcNAc(b1-4)]Man(a1-3)[Gal(b1-4)GlcNAc(b1-2)Man(a1-6)]Man(b1-4)GlcNAc(b1-4)GlcNAc
# Summary of the method: as §1
# [18] = target: Gal(b1-4)GlcNAc(b1-2)[Gal(b1-4)GlcNAc(b1-4)]Man(a1-3)[Gal(b1-4)GlcNAc(b1-2)[Gal(b1-4)GlcNAc(b1-6)]Man(a1-6)]Man(b1-4)GlcNAc(b1-4)GlcNAc
# Summary of the method: as §1
# [19] = target: Gal(b1-4)GlcNAc(b1-2)[Gal(b1-4)GlcNAc(b1-4)]Man(a1-3)[GlcNAc(b1-4)][Gal(b1-4)GlcNAc(b1-2)Man(a1-6)]Man(b1-4)GlcNAc(b1-4)GlcNAc
# Summary of the method: as §1
# [20] = target: Gal(b1-4)GlcNAc(b1-2)[Gal(b1-4)GlcNAc(b1-4)]Man(a1-3)[GlcNAc(b1-4)][Gal(b1-4)GlcNAc(b1-2)[Gal(b1-4)GlcNAc(b1-6)]Man(a1-6)]Man(b1-4)GlcNAc(b1-4)GlcNAc
# Summary of the method: as §1
# [21] = target: Gal(b1-4)GlcNAc(b1-2)[Gal(b1-4)GlcNAc(b1-6)]Man(a1-6)[Gal(b1-4)GlcNAc(b1-2)Man(a1-3)]Man(b1-4)GlcNAc(b1-4)GlcNAc
# Summary of the method: as §1
# [22] = target: Gal(b1-4)GlcNAc(b1-2)[Gal(b1-4)GlcNAc(b1-6)]Man(a1-6)[Gal(b1-4)GlcNAc(b1-2)Man(a1-3)]Man(b1-4)GlcNAc(b1-4)[Fuc(a1-6)]GlcNAc
# Summary of the method: as §1
binder,measurement,setting,value
B1,glycan array binding signal (z-score),[1],-0.056
same,glycan array binding signal (z-score),[2],-0.023
same,glycan array binding signal (z-score),[3],-0.289
same,glycan array binding signal (z-score),[4],-0.406
same,glycan array binding signal (z-score),[5],-0.119
same,glycan array binding signal (z-score),[6],-0.279
same,glycan array binding signal (z-score),[7],-0.38
same,glycan array binding signal (z-score),[8],-0.189
same,glycan array binding signal (z-score),[9],-0.46
same,glycan array binding signal (z-score),[10],-0.468
same,glycan array binding signal (z-score),[11],-0.276
same,glycan array binding signal (z-score),[12],-0.402
same,glycan array binding signal (z-score),[13],-0.23
same,glycan array binding signal (z-score),[14],-0.23
same,glycan array binding signal (z-score),[15],-0.301
same,glycan array binding signal (z-score),[16],-0.027
same,glycan array binding signal (z-score),[17],-0.238
same,glycan array binding signal (z-score),[18],-0.365
same,glycan array binding signal (z-score),[19],-0.303
same,glycan array binding signal (z-score),[20],-0.201
same,glycan array binding signal (z-score),[21],-0.212
same,glycan array binding signal (z-score),[22],-0.389

# Source: the supplement of paper PMC8728848
